Out of some 360,000 compounds screened, about 6,000 (1.7%) were called active. Inconclusive results, whose numbers are uncertain, are shown with a selection of clear calls. Calls follow the shape of the dose curve; as a rule, active = well fitted cell-killing curve with a large enough effect; inconclusive = small, poorly fitted or top-dose-only effect, or effect the other way; inactive = flat fitted curve, though single readings scatter. Potencies of inconclusive entries are left out as doubtful fits.
Assay: qHTS for induction of synthetic lethality in tumor cells producing 2HG: qHTS for the HT-1080-NT fibrosarcoma cell line;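 also: NT is the 2HG producing partner of a matched IDH1 knockdown line; nearly all actives have a fitted effect of over 55% in size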;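 as to activity, negative = less viability: 0% = DMSO-treated cells and -100% = media-only wells without cells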
Settings: HT-1080-NT fibrosarcoma viability, CellTiter-Glo ATP luminescence, 48 h; activity, negative = less viability: at 46.1 µM (top of the series) unless noted
Method in brief: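 HT-1080-NT fibrosarcoma cells (2HG-overproducing), 750 cells/well in RPMI with 5% FBS, dosed after 2 h and incubated 48 h at 37C. CellTiter-Glo luminescence normalized to DMSO and no-cell wells; concentration-response curves fitted and classed.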
Potency is read from the fitted curve at half-maximal effect; tags tell the direction and shape of the fitted curve.

SMILES | Potency | activity, negative = less viability
CC1CCCC(n2c(=S)[nH]c3ccccc3c2=O)C1C (centres undefined) | inconclusive [cytotoxic, single point] | –
COC(=O)C1=CN(c2ccc3c(c2)OCO3)C(N)=C(C#N)C1c1cccc(F)c1 (centres undefined) | active: 3.66 µM | –
Cc1cc(C)c2oc(C(=O)N(Cc3ccc(F)cc3)C3CCS(=O)(=O)C3)cc(=O)c2c1 (centres undefined) | inactive | –
C[C@H](NC(=O)c1ccc(C(C)(C)C)cc1)C(=O)N1CCN(C/C=C/c2ccccc2)CC1 | inconclusive [cytotoxic, single point] | –
O=C(NC1CCN(C(=O)N2c3ccccc3Sc3ccccc32)CC1)c1ccccc1F | inconclusive [cytotoxic, single point] | –
CC(C)CN1C(=O)C(=O)N(CC(=O)NC(C)CCc2ccccc2)C1=O (centres undefined) | inactive | –
CCC1=NN(C(=O)c2ccccc2O)C(O)(c2ccccc2)C1 (centres undefined) | inconclusive [cytotoxic, partial curve] | –
CN(C)CCCN(C(=O)CCSc1ccccc1)c1nc2cc3c(cc2s1)OCO3 | inconclusive [cytotoxic, single point] | –
CCN(C[C@H]1N[C@@](Cc2ccccc2)(C(=O)OC)[C@H]2C(=O)N(C)C(=O)[C@@H]12)C(=O)C1CCCCC1 | inactive | –
COc1ccc(OCCn2c(C)c(/C=N/n3cnnc3)c3ccccc32)cc1 | inconclusive [cytotoxic, partial curve] | –
O=C(Nc1sc2c(c1C(=O)O)CCCC2)c1ccccc1Cl | inconclusive [cytotoxic, single point] | –
Cc1ccc(F)c(S(=O)(=O)NC(=O)C2(C)CCN2C(=O)CCC2CCCC2)c1 (centres undefined) | inconclusive [rising, single point] | –
c1ccc(-c2nc(NCC3CCCO3)c3ccccc3n2)nc1 (centres undefined) | inconclusive [cytotoxic, single point] | –
CCCCNC(=O)c1onc(CSc2nc3ccccc3[nH]2)c1C(=O)NCCCC | inactive | –
Cc1ccc(-c2c[n+](Cc3ccc(Cl)cc3)c3n2CCC3)cc1 | inconclusive [cytotoxic, partial curve] | –
Cc1nn2c(NCCCN(C)C)c3c(nc2c1-c1ccccc1)CCCC3 | inconclusive [cytotoxic, single point] | –
O=C(Nc1ccc2ccccc2c1)c1onc2c1CCCC2 | inconclusive [cytotoxic, single point] | –
O=[N+]([O-])c1ccccc1CCc1cnc(Cl)s1 | inconclusive [rising, full curve, poor fit] | –
CCCCn1c(C23CC4CC(CC(C4)C2)C3)n[nH]c1=S | inactive | –
Cc1cccc(N2CCN(C(=O)C3CCCN(S(=O)(=O)c4c(C)noc4C)C3)CC2)c1C (centres undefined) | inactive | –
C/C(=N\Nc1nc(N2CCCCC2)nc(N2CCOCC2)n1)c1ccccc1O | inconclusive [cytotoxic, partial curve] | –
COc1ccc(C(CCNCc2ccc(OC(C)C)cc2)C(C)C)cc1 (centres undefined) | inconclusive [cytotoxic, single point] | –
Nc1ccc(S(=O)(=O)Nc2nc(-c3ccccc3)cc(-c3ccccc3)n2)cc1 | inconclusive [cytotoxic, partial curve, poor fit] | –

SMILES | Potency | activity, negative = less viability
NS(=O)(=O)c1ccc(NC(=O)Nc2ccc(C(F)(F)F)cc2)cc1 | inconclusive [cytotoxic, partial curve, poor fit] | –
c1ccc(C[C@H]2CN=C(Nc3ccccc3)N2CC2CCCCC2)cc1 | inconclusive [cytotoxic, partial curve] | –
COc1ccc(C)cc1Cn1c(S(C)(=O)=O)nc2ccccc21 | inconclusive [cytotoxic, single point] | –
CN(C)S(=O)(=O)c1cccc(NC(=O)c2ccc(-n3cncn3)c([N+](=O)[O-])c2)c1 | inactive | –
COc1ccc2cc3c(N)nn(C(=O)Cc4c[nH]c5ccccc45)c3nc2c1 | – | inconclusive: -30.4% [cytotoxic]
CC1=C(C(=O)Nc2ccc(CC(=O)NCc3ccc(OC(C)C)cc3)cc2)SCCO1 | inconclusive [cytotoxic, full curve, poor fit] | –
CC(C)N1C/C(=C/c2ccsc2)C(=O)/C(=C/c2ccsc2)C1 | inconclusive [cytotoxic, full curve] | –
O=C1COc2ccc(C(=O)COC(=O)c3nc(Cl)ccc3Cl)cc2N1 | inactive | –
Cc1ccc(S(=O)(=O)C2C(=O)N(C)C3(C)CC2c2ccccc2O3)cc1 (centres undefined) | inconclusive [rising, partial curve, poor fit] | –
CC1=Nc2ccccc2N=C(NC(=O)c2ccccc2)C1c1ccccc1 (centres undefined) | inactive | –
C[C@]12CCC(=O)C=C1CC[C@@H]1[C@@H]2[C@@H](O)C[C@@]2(C)[C@H]1CC[C@]2(O)C(=O)COC(=O)CCC(=O)O | inconclusive [rising, full curve] | –
Cc1cccc(N2CCN(S(=O)(=O)c3ccc4c(c3)CCCN4C(=O)C3CCC3)CC2)c1C | inactive | –
COc1ccc(-c2cc(-c3ccccc3)nc(SCC(=O)Nc3ncc(C)s3)c2C#N)cc1 | inactive | –
Cc1ccc(Cn2nnc3c(=O)[nH]c(C4CCN(S(=O)(=O)/C=C/c5ccccc5)CC4)nc32)cc1 | inconclusive [cytotoxic, partial curve] | –
O=C(Nc1cccc(Cl)c1)Nc1cccc(C(=O)O)c1 | inconclusive [rising, single point] | –
Cc1ccc(S(=O)(=O)N2CCCC2CNC(=O)c2ccc(F)c(F)c2)cc1 (centres undefined) | inactive | –
CC(=O)NCCc1nc2cc(NC(=O)c3ccccc3C)ccc2n1C | inactive | –
CC(C)(C)c1ccc(-c2n[nH]c(=S)n2Cc2ccccc2)cc1 | inconclusive [cytotoxic, single point] | –
CCC(COC(=O)c1ccccc1)Oc1cc(NCc2ccccc2)c2ncn(C(C)C)c2c1 (centres undefined) | inconclusive [cytotoxic, single point] | –
CCCCn1c(/C=N/Nc2nc3ccccc3[nH]2)nc2ccccc21 | inconclusive [cytotoxic, single point] | –
CC(=O)c1ccc(S(=O)(=O)N2CCCC(N(C)CCc3ccccn3)C2)cc1 (centres undefined) | inactive | –
CC(=O)NCCNc1nc(NC(C)C)nc2ccsc12 | inconclusive [rising, single point] | –
CCN1CCN(c2ncc(C(=O)Nc3c(F)cc(F)cc3Br)c3ccccc23)CC1 | inconclusive [cytotoxic, partial curve] | –

SMILES | Potency | activity, negative = less viability
CC(C)c1ccc(/C=N/n2c(COc3ccccc3)n[nH]c2=S)cc1 | inactive | –
CCCCn1c(=O)[nH]c(=O)c2c1nc(-c1ccccc1F)n2Cc1ccccc1 | inconclusive [cytotoxic, single point] | –
O=C(Nc1nc(-c2ccccn2)cs1)Nc1ccc(F)cc1F | inconclusive [cytotoxic, single point] | –
N#Cc1ccc(S(=O)(=O)NC2CCCCNC2=O)cc1 (centres undefined) | inactive | –
Cc1[nH]n(-c2ccccc2)c(=O)c1C(C[N+](=O)[O-])c1ccc(Cl)cc1 (centres undefined) | inconclusive [cytotoxic, single point] | –
COC(=O)C(C)Sc1ncnc2c1nnn2-c1ccc(F)cc1 (centres undefined) | inconclusive [cytotoxic, single point] | –
COc1cc(/C=C/C(O)=C/C(=O)/C=C/c2ccc(O)cc2)ccc1O | inconclusive [cytotoxic, single point] | –
Cc1cc(C)cc(NC(=O)c2nnn(Cc3cc(C)ccc3C)c2N)c1 | inactive | –
C[n+]1ccn(CC(=O)c2cccs2)c1 | inconclusive [rising, full curve, poor fit] | –
CC(=O)Nc1cccc(NC(=O)c2cc(-c3cccnc3)nc3ccc(Br)cc23)c1 | inconclusive [cytotoxic, single point] | –
O=C(Nc1ccccc1C(=O)Nc1nnc(C(F)(F)F)s1)c1ccccc1 | active: 3.26 µM | –
c1ccc(-n2nnnc2Oc2cccc3cccnc23)cc1 | active: 7.94 µM | –
OC(c1cccc(Cl)c1)c1ncc(-c2cccc3ccccc23)[nH]1 (centres undefined) | inactive | –
CCn1c(=O)cc(N2CCOCC2)[nH]c1=O | inconclusive [rising, partial curve] | –
COc1cc(C(O)c2nc(-c3cccc(C(F)(F)F)c3)cs2)ccc1F (centres undefined) | inconclusive [cytotoxic, single point] | –
CN(C)CC/C=C1\c2ccccc2Sc2cc(F)c(Cl)cc21 | active: 25.9 µM | –
CC1CCCCC12NC(=O)N(CC(=O)NCCc1c[nH]c3ccccc13)C2=O (centres undefined) | inactive | –
COc1cccc(C(=O)O/N=C(\N)c2ccc([N+](=O)[O-])cc2)c1OC | inconclusive [cytotoxic, single point] | –
CCOC(=O)N1CCN(c2ccc3nnnn3n2)CC1 | inconclusive [rising, partial curve] | –
Cc1cc(Cn2nc(C(=O)NCc3cccc(Br)c3)cc2-c2ccccc2)on1 | inconclusive [cytotoxic, single point] | –
O=C(N/N=C/c1ccncc1)c1ccccc1OCc1ccc(Br)cc1 | inconclusive [cytotoxic, partial curve] | –
O=c1[nH]c(=S)c2ncn(-c3ccccc3)c2[nH]1 | inconclusive [rising, single point] | –
CCCC(=O)Nc1ccc(S(=O)(=O)Nc2nccs2)cc1 | inactive | –
